The record followed here is ChEMBL document CHEMBL4888484, “Replenishing the malaria drug discovery pipeline: Screening and hit evaluation of the MMV Hit Generation Library 1 (HGL1) against asexual blood stage Plasmodium falciparum ,using a nano luciferase reporter read-out” (2022).

Hit rate of the full screen: of about 150,000 compounds, about 540 (0.36%) showed an effect of 50% or more. The list shows a part of the results.

What is called % Inhibition is the drop in the measured response relative to a control, in per cent.

For this experiment, the system named is Plasmodium falciparum. Description: Primary screen in NF54 nanoGlo assay, in single point, at 2uM, 72h; a lower Z score goes with more inhibition. The settings on record: timepoint 72 hour. It is filed as functional, Erythrocyte.
Consider `Cc1cc(C)cc(/N=C(\NCc2ccncc2)NC(=O)c2cccc(F)c2)c1`, for which the “% Inhibition” value was -7% and the Z score is listed as 1.22.

Consider `c1ccc(Nc2nccc(-c3ccc4c(c3)OCO4)n2)cc1`, for which the “% Inhibition” value was 27% and the Z score is recorded as -3.06.

`COc1ccc2c(c1)[C@H](C(=O)Nc1ccncc1OC(C)C)CC2`: the “% Inhibition” value is listed as 3% and the Z score was -0.4.

Turning to `Cc1n[nH]c2ncc(NC(=O)c3ccc(CCC(F)(F)F)cc3)cc12`, the “% Inhibition” value was found to be 37% and the Z score was -4.75.

Turning to `COc1ncccc1C(=O)NCc1nccnc1-c1ccoc1`, the “% Inhibition” value came to 16% and the Z score is recorded as -1.99.

With `CC(C)c1nccc(N2CCN([C@@H](C(N)=O)c3ccccc3)CC2)n1`, the “% Inhibition” value was 19% and the Z score was -2.48.

Consider `CCNc1cnc(-c2noc([C@H]3CCO[C@@H]3c3cccnc3)n2)cn1`, for which the “% Inhibition” value was 3% and the Z score was -0.39.

Turning to `CCCOc1ccccc1[C@H](C)NC(=O)N1CC(O)C1`, the “% Inhibition” value is recorded as -9% and the Z score came out at 0.88.

As to `C=C[C@@H]1CCCCN1C(=O)CC(CC)(CC)C(=O)O`, the “% Inhibition” value is given as 1% and the Z score is reported as -0.14.

For `CC(=O)Nc1ccccc1CN(Cc1ccc(F)cc1F)C1CC1`, the “% Inhibition” value is given as 9% and the Z score was -0.85.

On to `CN(CC1(C)COC1)C(=O)[C@H]1CC[C@H](O)CC1`, for which the “% Inhibition” value is on record as -14% and the Z score turned out to be 2.1.

For the compound `COc1ccc(OC)c(C2CN(C(=O)NC(C)C)CC2C(=O)N2CCCC2)c1` (stereo not given), the “% Inhibition” value was -16% and the Z score was found to be 1.5.

Regarding `C[C@@H](CO)NC(=O)Nc1cncc(Cl)c1`, the “% Inhibition” value is on record as -8% and the Z score came to 1.6.

With `CN(CC1CCOCC1)C(=O)Nc1cc(F)cc(F)c1`, the “% Inhibition” value is on record as -11% and the Z score amounted to 1.64.

Take `O=S(=O)(c1ccc(Br)cc1)N1CCN(Cc2noc(-c3cccc(C(F)(F)F)c3)n2)CC1`: the “% Inhibition” value stood at 0% and the Z score is -0.04.

Consider `C[C@H]1CCCCN1C(=O)C1=CC(c2ccc3c(c2)OCO3)=NS(=O)(=O)N1C`, for which the “% Inhibition” value is -2% and the Z score is 0.35.

As for `C[C@H](CO)NC(=O)c1cccc(C=CCCCC(=O)N(C)C)c1`, the “% Inhibition” value is given as -6% and the Z score turned out to be 0.73.

In the case of `COc1ccc(-c2nc(CCNC(=O)c3ccccc3Cl)n[nH]2)cc1`, the “% Inhibition” value is on record as -10% and the Z score is listed as 1.88.

In the case of `CC1(C)c2ccccc2N2CC(=O)N(CC#N)[C@@]21C`, the “% Inhibition” value stood at 34% and the Z score is -3.89.

Turning to `Cc1oc(C)c(C(=O)Nc2cccnc2C2CC2)c1C`, the “% Inhibition” value came out at 10% and the Z score was -1.88.

For the compound `COc1nc(NC(=O)[C@H]2CC2(C)C)n[nH]1`, the “% Inhibition” value stood at 12% and the Z score is on record as -1.19.

With `CC(=O)N1CCN(C(=O)c2nn(-c3ccc(C)c(F)c3)c(=O)n(Cc3ccc(C)cc3)c2=O)CC1`, the “% Inhibition” value was -17% and the Z score is reported as 1.62.

As for `Cc1cccc(N(CCO)CCCO)n1`, the “% Inhibition” value is listed as -8% and the Z score is on record as 0.85.

`COc1ccc(Cl)cc1-n1cnc2cc(C(=O)N3CCOCC3)ccc2c1=O`: the “% Inhibition” value was -7% and the Z score is given as 0.93.

For `Cc1c(F)cccc1NC(=O)COC[C@H]1CCCO1`, the “% Inhibition” value was -9% and the Z score is listed as 0.89.

For the compound `CCOC(=O)N1CCN(C(C)C(=O)N2c3ccccc3CC2C)CC1` (stereo not given), the “% Inhibition” value is reported as -3% and the Z score came to 0.34.

For the compound `Cn1nc2n(c1=O)CCN(S(=O)(=O)c1ccccc1F)CC2`, the “% Inhibition” value is -12% and the Z score came to 1.58.

Turning to `CC(=O)N1CCc2cc(S(=O)(=O)N3CCOCc4ccccc43)ccc21`, the “% Inhibition” value came out at 8% and the Z score was -0.78.

Take `Cc1cc(O)cc(=O)n1CC(=O)N1C[C@@H](C)CN(C)c2ccccc21`: the “% Inhibition” value is 8% and the Z score was -1.55.

`COc1cccc(CC[C@H]2CCCN(C(=O)c3c(C)nc4ncccn34)C2)c1`: the “% Inhibition” value is given as -9% and the Z score is 1.27.

On to `COc1cc(CNC2CC2)cc(Br)c1OCc1ccc(C)cc1`, for which the “% Inhibition” value is 30% and the Z score is recorded as -3.37.

`Nc1nc([C@H]2CCOC2)cc(N2CCCCCCC2)n1`: the “% Inhibition” value is -3% and the Z score came out at 0.53.

Turning to `CC1CCC(NC(=O)CN[C@H](c2ccccc2)C2CC2)CC1` (stereo not given in full), the “% Inhibition” value was -20% and the Z score is 1.87.

Take `Cn1nc2nc(NCc3ccccc3)nc(-c3cccc(Oc4ccccc4)c3)c2c1N`: the “% Inhibition” value is listed as -11% and the Z score was 1.03.

Turning to `Cc1ccccc1-c1nc(OC(C)C)nn1-c1ccc(NC(=O)c2ccco2)cc1`, the “% Inhibition” value is on record as 6% and the Z score is -1.02.

Regarding `Cc1ccc(Cl)cc1-n1ncc2c(=O)n(Cc3nc(-c4ccccc4)no3)cnc21`, the “% Inhibition” value was found to be 2% and the Z score is listed as -0.29.

For the compound `Cc1c(Cl)cccc1-n1ccn2c(=O)n(Cc3ccc(F)cc3)nc2c1=O`, the “% Inhibition” value is -3% and the Z score came out at 0.42.

As to `Cc1ccc(C2CCCC2N(C)c2c(C#N)c(=O)n(C)c(=O)n2C)cc1` (stereo not given), the “% Inhibition” value is on record as -12% and the Z score came out at 2.04.

As for `Cc1noc(CCCNC(=O)NC[C@](C)(O)c2ccc(C)o2)n1`, the “% Inhibition” value is on record as -4% and the Z score is listed as 0.58.

Consider `CC(C)(C)C(=O)NCCc1ccc(OC(F)F)cc1`, for which the “% Inhibition” value was -20% and the Z score stood at 1.82.

`COc1cccc(NC(=O)[C@@]2(CCO)CCN(c3ncccn3)C2)c1`: the “% Inhibition” value amounted to 4% and the Z score is on record as -0.73.

For the compound `CCCOc1ccc(CN2CCOC3(CCOCC3)C2)cc1OCC`, the “% Inhibition” value amounted to 13% and the Z score is -1.6.

Regarding `Cc1nnnn1[C@@H](C(=O)NCc1nc(C(F)(F)F)n[nH]1)c1ccccc1`, the “% Inhibition” value was -23% and the Z score was 4.49.

On to `Cc1cc(NC(=O)CCN2CCN(C)C[C@@H]2C)no1`, for which the “% Inhibition” value is 11% and the Z score is -2.12.

For the compound `CCc1nn(C[C@@]2(C)CC2(Cl)Cl)c(=O)c(C#N)c1CC`, the “% Inhibition” value is reported as -2% and the Z score turned out to be 0.32.

In the case of `CC1CCCC(C)C1NC(=O)CC1CCCOC1` (stereo not given), the “% Inhibition” value is recorded as -7% and the Z score is 1.13.

As for `COCC(=O)NCc1cc2n(n1)CCN([C@H]1CCN(c3ccc(F)cc3)C1)C2`, the “% Inhibition” value is given as -4% and the Z score stood at 0.73.

In the case of `CN(Cc1cncs1)Cc1ccns1`, the “% Inhibition” value is listed as -7% and the Z score came out at 0.96.

As to `Cc1cc(N2CC[C@](C)(O)[C@@H](O)C2)nc(N2CCOCC2)n1`, the “% Inhibition” value is given as -10% and the Z score is recorded as 0.96.

Consider `Cc1ccc(C)c(Cn2c(C)c(CNC3CCC(C)CC3)c(C(=O)O)c2C)c1` (stereo not given), for which the “% Inhibition” value is reported as -13% and the Z score was determined as 2.36.

`COc1ccc(-c2nn3c(N4CCN(C)CC4)cc(C)nc3c2C)cc1OC`: the “% Inhibition” value is reported as -11% and the Z score was found to be 2.19.

On to `O=C(O)C1C2C=CC(O2)C1C(=O)Nc1ccc2ccccc2c1` (stereo not given), for which the “% Inhibition” value is reported as -30% and the Z score amounted to 3.55.

In the case of `CCCn1nc(C(=O)N2CCO[C@@H](C)C2)ccc1=O`, the “% Inhibition” value is on record as -7% and the Z score was 1.11.

`CCCc1cc(N2CCCC[C@H]2c2ncccn2)n2ncnc2n1`: the “% Inhibition” value is given as -5% and the Z score is recorded as 0.66.

Regarding `O=C(COc1ccccc1)N1CCCN(c2ccncc2Cl)CC1`, the “% Inhibition” value is -10% and the Z score amounted to 0.92.
